Several values for one entry are separate records, joined by “and”; a condition that tells them apart may be missing. Identical values can stand only once. About 540 (0.36%) of roughly 150,000 compounds showed an effect of 50% or more. The list shows a part of the results.

The text below walks through data of ChEMBL document CHEMBL4888484, “Replenishing the malaria drug discovery pipeline: Screening and hit evaluation of the MMV Hit Generation Library 1 (HGL1) against asexual blood stage Plasmodium falciparum ,using a nano luciferase reporter read-out” (2022).

This experiment has as its system Plasmodium falciparum. The experiment can be described thus: Primary screen in NF54 nanoGlo assay, in single point, at 2uM, 72h; a lower Z score goes with more inhibition. It is filed as functional, Erythrocyte. The settings on record: timepoint 72 hour.

On to `COc1cc(Cl)cc(CN2CC(O)C2)c1OC`, for which the % Inhibition (as a rule, the drop in the measured response relative to a control, in per cent) was -15% and the Z score is 2.77.

Regarding `Cc1cc(C)n(CC2CCN(C(=O)c3c(O)cccc3O)CC2)n1`, the “% Inhibition” value is reported as -11% and the Z score was found to be 1.21.

With `O=C1C[C@H](C(=O)Nc2ccc(NCc3ccccc3)c(Cl)c2)CN1`, the “% Inhibition” value was -15% and the Z score stood at 1.86.

With `Cc1ccc([C@@H]2Cn3cnc(C(=O)N4CCC(C(=O)NCC5CC5)CC4)c3CO2)cc1`, the “% Inhibition” value is -16% and the Z score worked out at 1.8.

In the case of `Cc1ccc(NC2CCN(C(=O)Nc3ccccc3C)CC2)cc1`, the “% Inhibition” value is -5% and the Z score turned out to be 0.75.

As to `CCn1nnc(NC(=O)c2ccc(Cl)o2)n1`, the “% Inhibition” value is 0% and the Z score is recorded as 0.03.

For the molecule `Cn1cc([C@@H]2CCCN2Cc2noc(C(C)(C)C)n2)cn1`, the “% Inhibition” value was 1% and the Z score was -0.21.

As for `COc1cc(C(=O)N2CC[C@@H]3CC[C@@]32c2cccnc2)sn1`, the “% Inhibition” value is on record as 4% and the Z score is on record as -0.74.

As for `Cn1ncc(C(=O)N[C@H]2CCC[C@@H](C3CC3)C2)c1-n1cnnc1`, the “% Inhibition” value is -4% and the Z score is given as 0.79.

`COC[C@@H]1CCC[C@@H]1NC(=O)c1cnc(N)nc1C`: the “% Inhibition” value is given as -3% and the Z score is listed as 0.56.

For `Cc1nc(CN2CCS(=O)(=O)[C@@H](C)C2)oc1C`, the “% Inhibition” value is recorded as -9% and the Z score is on record as 1.07.

With `Fc1ccc(-c2noc([C@@H]3CCCN3CC3CCCCC3)n2)nc1`, the “% Inhibition” value is reported as -5% and the Z score came to 0.66.

Take `CN(C)C(=O)c1cc[nH]c1[C@H]1CCCN(Cc2ccc(F)cc2Cl)C1`: the “% Inhibition” value is given as 11% and the Z score is -1.39.

On to `COCCN1C[C@H]2CN(Cc3cnn(C)c3)CCN2C1=O`, for which the “% Inhibition” value is on record as -3% and the Z score is recorded as 0.61.

For the molecule `CCC(NC(C)c1sccc1C)c1c(C)nn(C)c1C` (centres undefined), the “% Inhibition” value was determined as 3% and the Z score was -0.37.

For the molecule `Cc1csc([C@H](C)NCCOc2cccc(C#N)c2)n1`, the “% Inhibition” value is -2% and the Z score stood at 0.28.

`CCc1nn(C)c(Nc2nc3c(s2)c(C)nn3C)c1C`: the “% Inhibition” value was -8% and the Z score is given as 1.44.

Turning to `CCc1cc(C(=O)N2CCC[C@H](N)C2)cc(=O)[nH]1`, the “% Inhibition” value is on record as 1% and the Z score is reported as -0.18.

In the case of `O=C(c1cccc(C(F)(F)F)c1F)N1CCC2CCC(C1)N2` (centres undefined), the “% Inhibition” value was -11% and the Z score is given as 2.16.

Turning to `CC(C)c1ccc(CN2CCC[C@@](O)(CN3CCOCC3)C2=O)cc1`, the “% Inhibition” value is listed as -4% and the Z score was determined as 0.57.

With `Cc1cc(C)c(-c2csc(NC(=O)c3cccc(N(C)C)c3)n2)cc1C`, the “% Inhibition” value is recorded as -4% and the Z score was found to be 0.84.

Consider `CCNC(=O)NCCOC(=O)c1ccccc1F`, for which the “% Inhibition” value is recorded as -19% and the Z score worked out at 1.9.

`CCOC(=O)c1nn(C)cc1CNc1ccc(Cl)cn1`: the “% Inhibition” value was -2% and the Z score came to 0.29.

For `Cn1ccnc1CN1C[C@@H](F)C[C@H]1CNCc1c(Cl)cnn1C`, the “% Inhibition” value is recorded as -8% and the Z score is given as 1.01.

Take `CCc1nc(-c2cc(C)n(C)n2)n(-c2ccncc2)n1`: the “% Inhibition” value is 4% and the Z score was -0.44.

Consider `CN(C)C(=O)C1(N(C(=O)OC(C)(C)C)C2CC2)CCC1`, for which the “% Inhibition” value is -11% and the Z score worked out at 1.07.

On to `Cc1noc(-c2csc(C(=O)NC3CC3)n2)n1`, for which the “% Inhibition” value was determined as 1% and the Z score was -0.11.

Regarding `N#Cc1cn[nH]c1NC(=O)C(=O)NCCc1c[nH]c2ccccc12`, for the setting “2 µM”, the “% Inhibition” value was -4% and -7%; the Z score was 0.49 and 0.87.

On to `Cc1[nH]ccc1C(=O)NCc1ccc(N2CCCC[C@@H]2CCO)nc1`, for which the “% Inhibition” value is given as -9% and the Z score amounted to 1.21.

On to `COc1ccc(C2=C[C@@H](c3ccc(F)cc3)n3ncc(C(=O)Nc4ccc(C)cc4)c3N2)cc1`, for which the “% Inhibition” value turned out to be 2% and the Z score is listed as -0.16.

For the molecule `CCn1nc(CNC(=O)COC[C@H]2CCCO2)c2ccccc21`, the “% Inhibition” value worked out at 2% and the Z score is -0.38.

For the molecule `Cc1ccn2c(Nc3ccc4c(c3)OCO4)c(-c3ccco3)nc2c1`, the “% Inhibition” value is -16% and the Z score was found to be 1.81.

For `Cc1nnc(NC(=O)Cn2ccc3cc(OCc4ccccc4)ccc32)s1`, the “% Inhibition” value is recorded as -4% and the Z score was found to be 0.52.

For `Cc1ccc(F)cc1CNCCc1nnc[nH]1`, the “% Inhibition” value is -20% and the Z score was determined as 2.59.

With `COC1CCN(C(=O)C2=NN(c3ccccc3)C(=O)CC2)CC1`, the “% Inhibition” value is on record as -40% and the Z score is 4.7.

As to `Cc1ccc(C)c(Cn2cnc3c(nnn3C)c2=O)c1`, the “% Inhibition” value was -9% and the Z score came to 1.37.

Consider `CCc1cnc(N(C)Cc2cc(C3CC3)on2)nc1`, for which the “% Inhibition” value was -13% and the Z score came out at 1.46.

Regarding `Cc1ccc2nc(NC(=O)[C@H]3CCCN(S(=O)(=O)c4cc(-c5noc(C)n5)sc4C)C3)sc2c1`, the “% Inhibition” value is recorded as 2% and the Z score is listed as -0.22.

Consider `Cc1ocnc1C(=O)NCc1ccc2[nH]c(-c3ccc(F)cc3)c(C)c2c1`, for which the “% Inhibition” value was -12% and the Z score is given as 1.4.

On to `CN1CCC(N2CCN(c3ncccc3Cl)C[C@@H](O)C2)CC1`, for which the “% Inhibition” value is listed as -8% and the Z score is on record as 1.51.

`COc1cc2c(cc1OC)CC(=O)N(CCC(=O)Nc1nccs1)C=C2`: the “% Inhibition” value is -13% and the Z score is 1.62.

Consider `O=C(c1cnccn1)N1CCc2[nH]c(-c3ccccc3)nc2C1`, for which the “% Inhibition” value was found to be 0% and the Z score turned out to be 0.06.
